The list shows a part of the results.

This experiment addresses T1, OsWOX13 (Oryza sativa, UniProt Q5QMM3 1-267).
T1 sequence: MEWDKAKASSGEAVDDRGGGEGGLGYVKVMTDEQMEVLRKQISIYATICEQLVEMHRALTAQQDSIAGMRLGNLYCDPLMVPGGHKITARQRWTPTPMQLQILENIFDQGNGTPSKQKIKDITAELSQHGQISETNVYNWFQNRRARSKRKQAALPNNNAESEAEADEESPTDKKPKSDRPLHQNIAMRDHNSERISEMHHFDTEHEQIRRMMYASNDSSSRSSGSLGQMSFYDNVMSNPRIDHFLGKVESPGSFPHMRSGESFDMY
The experiment in a line: protein-binding microarray (RPBM); PBS, 2% BSA, 51.3 ng/ul salmon testes DNA, 50 uM zinc acetate, 200 nM TF, 25 C, 1 h; high values mean tight binding. The settings on record: protein: recombinant; tags: N-terminal polyhistidine and DsRed monomer fusion (pET32a); label: CyDye5-dUTP incorporated in the synthesized complementary strand; 3' TTTTT single-stranded linker to array surface; dsDNA, one strand shown. The essentials:
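Transcription factors were each fused at the N-terminus to a polyhistidine tag plus DsRed and expressed in E. coli BL21-CodonPlus before Ni–NTA purification. Binding to a double-stranded custom Agilent array was carried out with 200 nM protein at 25 °C for 1 h in PBS, 2% BSA, salmon testes DNA and 50 µM zinc acetate. The binding signal is per-feature fluorescence intensity, in arbitrary units, on an Axon 4000B scanner.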
With “GGTAACAATCATGATAGAATGGATTGAAAAGATTTAGCCACGGAGTCACCTAGTGCAG”, the binding signal is 33400 fluorescence intensity (a.u.).

As for “GATCTAAAGGTGATTGAGAGGCATGTGGCACGTCCACGTCCGGAGTCACCTAGTGCAG”, the binding signal was 29700 fluorescence intensity (a.u.). The value for “TAAATTTTGATTGGGTTTGATTAAATTAATTTATAGAAAACGGAGTCACCTAGTGCAG” was 33100 fluorescence intensity (a.u.).

Regarding “AATAATAAATTAATCCCGCGGGTGTCCAGCAACTAATTACCGGAGTCACCTAGTGCAG”, the binding signal is 7110 fluorescence intensity (a.u.). The same measure for “CAAAATTCAATTATTTTACTCTTTATAAATCATTCGAATACGGAGTCACCTAGTGCAG”: 7190 fluorescence intensity (a.u.).

For “GCCTATGATTTGGTTATACTTCAGTTCAGAGTGTCTCGATCGGAGTCACCTAGTGCAG”, the binding signal was 9200 fluorescence intensity (a.u.). Turning to “AATTAATCAACAAATAATAGTCTTGTAGTAGGAATAAGTACGGAGTCACCTAGTGCAG”, the binding signal was 5320 fluorescence intensity (a.u.). For “TTAAATTTATTCCTGCCTCAATAAACTACGTATGGTTTCACGGAGTCACCTAGTGCAG”, the binding signal was 7810 fluorescence intensity (a.u.). On to “GACATACCTTGAGATTGACGAAGTCATCACGAACGTCTCACGGAGTCACCTAGTGCAG”, for which the binding signal was 5850 fluorescence intensity (a.u.). The value for “ATAAACTGCAGTAAATAACTGTTCAAAGAAATGAATAATACGGAGTCACCTAGTGCAG” was 5620 fluorescence intensity (a.u.); that for “AATAATAGAATAACTTACATTGTGAATTACTAGTAGTACGCGGAGTCACCTAGTGCAG” was 7490 fluorescence intensity (a.u.); that for “GCCAATAGTGATTGAGACAGACTGCTTGGCGATGATCCATCGGAGTCACCTAGTGCAG” was 42600 fluorescence intensity (a.u.). On to “CTAAAATATCTGTAATTACGGAACCGAAGGAAGTAGAGACCGGAGTCACCTAGTGCAG”, for which the binding signal was 15600 fluorescence intensity (a.u.). The same measure for “ATAATTGATAATGAAGACCAAGGAAATGCTTCTTTGGTCCCGGAGTCACCTAGTGCAG”: 54300 fluorescence intensity (a.u.); for “CGATCCGAGATTAATTGTGCTCATACTGTTCGACGAATTGCGGAGTCACCTAGTGCAG”: 5200 fluorescence intensity (a.u.); for “GTTCTAAATTATTGGAGCGGAGGGAGAATGTTATTTAACACGGAGTCACCTAGTGCAG”: 7640 fluorescence intensity (a.u.). The value for “TTACACCTTAATTAAACCTGATGTTCACCACACAAAAGTTCGGAGTCACCTAGTGCAG” was 5790 fluorescence intensity (a.u.). The value for “GTTAATTTAGAGCGTCACGGGCTAGTTCCGTTCGGGGCTACGGAGTCACCTAGTGCAG” was 14300 fluorescence intensity (a.u.); that for “GGAGGGCGGGCTGTTATATTCTTCACACCTTGCATGTAAGCGGAGTCACCTAGTGCAG” was 3310 fluorescence intensity (a.u.); that for “ATTTCAATCAAACTTCCAATTTTAGCGTGAAGTAAACACACGGAGTCACCTAGTGCAG” was 21100 fluorescence intensity (a.u.). With “AAACTAATTTCGAATCTAAATTCGATGAGAAGATCGGGATCGGAGTCACCTAGTGCAG”, the binding signal is 9230 fluorescence intensity (a.u.).

For the sequence “CTTTAATCAAAATCAAAACGTTTTGAAACAAAGAGTACATCGGAGTCACCTAGTGCAG”, the binding signal is 4430 fluorescence intensity (a.u.). The same measure for “CAATTGTACACCCAACTAATTAATGTATACATGCATGATTCGGAGTCACCTAGTGCAG”: 3380 fluorescence intensity (a.u.).

For the sequence “GATTTGATTTAAATCTTGAATAAATTTAATAAAATCCTATCGGAGTCACCTAGTGCAG”, the binding signal was 10000 fluorescence intensity (a.u.). The value for “GGTTTATAATCTACTTTTAATTATTTGGATAATTTATTTCCGGAGTCACCTAGTGCAG” was 12800 fluorescence intensity (a.u.). The value for “GTGTGACAGTGTGACAGATGTGCATCATGTGGGTCACAAACGGAGTCACCTAGTGCAG” was 5070 fluorescence intensity (a.u.). The same measure for “GATTTAATAAAACTAATTTGATATTCAAAGTGTTGCTATTCGGAGTCACCTAGTGCAG”: 8280 fluorescence intensity (a.u.); for “AGGAAATTTTCACAAACTAATAATGTTTATAAGCCATACTCGGAGTCACCTAGTGCAG”: 3150 fluorescence intensity (a.u.). “ACAGTTCCTTTGTGCCAATCATTGAACCCGGGAATGCTGGCGGAGTCACCTAGTGCAG”: the binding signal is 4780 fluorescence intensity (a.u.).

For “GAAAATGCTTAATTAGTAGGGATTATTGAATCACATGCTTCGGAGTCACCTAGTGCAG”, the binding signal is 23000 fluorescence intensity (a.u.). The same measure for “CATCGCAGTGGATTGACATGCTGACCACAAGCCCTCCTGTCGGAGTCACCTAGTGCAG”: 6000 fluorescence intensity (a.u.); for “TCACCGTGATTAGTCTCACCCCTAGTTTAGCTTAATGAACCGGAGTCACCTAGTGCAG”: 27800 fluorescence intensity (a.u.); for “TGTTGAATGAAAATTTGTAGAATTCAACAAATTGTAAATGCGGAGTCACCTAGTGCAG”: 4440 fluorescence intensity (a.u.). The value for “CGCCGTTGATTGGTTCCCCTCTGCCGCTGTCGCGAGGAAGCGGAGTCACCTAGTGCAG” was 34900 fluorescence intensity (a.u.); that for “TAAGCCTAATTAATCCATAATTAGAGAATGTTTACTGTAGCGGAGTCACCTAGTGCAG” was 40100 fluorescence intensity (a.u.); that for “ACGGTCACTAAATTAAAATATTTGTTGTTGGTGTCTCACGCGGAGTCACCTAGTGCAG” was 3670 fluorescence intensity (a.u.).

Regarding “AACTAATCACAATCATTTTCTATTTTGATTTCATCATCTACGGAGTCACCTAGTGCAG”, the binding signal is 18400 fluorescence intensity (a.u.). The value for “TCTGATTTGCTTCCTCCGCGAACCGGTCGTCTTCTCCAGCCGGAGTCACCTAGTGCAG” was 28200 fluorescence intensity (a.u.); that for “AGTTCCTGCCTAATTGACTTACGCTGACTCTGTCAATATCCGGAGTCACCTAGTGCAG” was 18900 fluorescence intensity (a.u.); that for “TTTAAATTTAAGTTGAAATGTTAAACAAATCGTTTGCAATCGGAGTCACCTAGTGCAG” was 6110 fluorescence intensity (a.u.). The value for “AAATTGAAAATTTGGTTGAAATTGAAACGATGTGACGAAACGGAGTCACCTAGTGCAG” was 3900 fluorescence intensity (a.u.). With “TGAAACAATTTATTAATTGAGTTTTGAGTGGATCTAAGAACGGAGTCACCTAGTGCAG”, the binding signal was 23600 fluorescence intensity (a.u.).
